Where “and” joins values, the source holds several entries; their conditions need not be identical. Equal entries are not always repeated. The campaign covered roughly 16,000 compounds. About 40 (0.2%) were called active. About 1% were inconclusive and are not listed. Calls come from the whole dose curve; as a rule, active = well fitted activation curve with a large enough effect; inconclusive = small, poorly fitted or top-dose-only effect, or another doubt; inactive = no such curve, though single readings can be large or run the other way. The list shows a part of the results.

We go through 53 compounds from PubChem BioAssay AID1645887 (National Center for Advancing Translational Sciences (NCATS), 2021).
% is set by controls: 0 for no effect and ±100 for the full control effect.

This assay has as its target Rap guanine nucleotide exchange factor 4 (Homo sapiens) (UniProt Q8WZA2). The assay is described as follows: Validation qHTS for agonist of cAMP-regulated guanine nucleotide exchange factor 4 (EPAC2).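 Note: exchange makes BODIPY-GDP fluorescence drop when released from Rap1B; series mostly up to about 150 µM.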 The note with it: EPAC2 Rap1B BODIPY-GDP exchange, fluorescence; activation: active compounds read high. In outline: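 Fluorescent exchange assay: 100 nM EPAC2 with 250 nM RAP1B-BODIPY-GDP and 50 uM GDP; compound added, 5 min at room temperature, then read (ex 480/em 540 nm) every 5 min for 30 min. Normalized to 6.5 mM cAMP agonist control.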
Sequence of UniProt Q8WZA2 (Q8WZA2 whole entry, looked up): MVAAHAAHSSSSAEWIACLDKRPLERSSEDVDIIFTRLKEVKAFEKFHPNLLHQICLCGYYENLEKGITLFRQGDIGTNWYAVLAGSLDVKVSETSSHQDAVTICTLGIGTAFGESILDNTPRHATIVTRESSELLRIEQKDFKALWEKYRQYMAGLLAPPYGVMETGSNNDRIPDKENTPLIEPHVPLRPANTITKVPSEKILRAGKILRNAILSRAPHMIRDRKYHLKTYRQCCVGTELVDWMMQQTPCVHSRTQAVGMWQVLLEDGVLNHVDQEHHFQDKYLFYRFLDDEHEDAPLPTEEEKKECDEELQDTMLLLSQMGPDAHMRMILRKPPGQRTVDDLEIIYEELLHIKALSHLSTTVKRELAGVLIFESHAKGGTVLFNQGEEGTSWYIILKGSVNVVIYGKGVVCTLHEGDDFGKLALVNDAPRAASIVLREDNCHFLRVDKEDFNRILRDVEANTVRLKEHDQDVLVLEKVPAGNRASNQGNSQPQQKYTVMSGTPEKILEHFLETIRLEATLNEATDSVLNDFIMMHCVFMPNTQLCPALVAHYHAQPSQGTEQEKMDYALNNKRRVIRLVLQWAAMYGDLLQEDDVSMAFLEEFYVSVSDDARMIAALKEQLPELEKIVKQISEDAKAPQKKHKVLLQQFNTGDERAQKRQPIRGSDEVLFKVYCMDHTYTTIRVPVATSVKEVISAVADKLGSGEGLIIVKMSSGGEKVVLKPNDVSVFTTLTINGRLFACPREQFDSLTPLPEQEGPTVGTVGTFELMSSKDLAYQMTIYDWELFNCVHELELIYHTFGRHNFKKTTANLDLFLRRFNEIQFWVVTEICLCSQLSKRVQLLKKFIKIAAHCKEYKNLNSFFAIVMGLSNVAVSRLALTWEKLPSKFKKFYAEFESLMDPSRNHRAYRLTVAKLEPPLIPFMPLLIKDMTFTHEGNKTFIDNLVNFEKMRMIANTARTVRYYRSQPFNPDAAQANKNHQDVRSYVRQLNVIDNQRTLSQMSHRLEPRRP
As for `C[C@@H]1CN(Cc2ccc3c(c2)CN(C(=O)c2ccc(Oc4ccccc4)o2)CCO3)C[C@H](C)O1`, the activation was inactive: -7.46%. For `O=C(O)C[C@H]1c2ccc(C(F)(F)F)cc2S(=O)(=O)N1Cc1ccccc1` the value was inactive: -15.6%; for `Cc1ccc(C(C)(C)c2ccc(C)cc2)cc1`, inactive: 4.24%; for `COc1ccc(Oc2ncc3nc(-c4ccccc4)c(=O)n(Cc4cccs4)c3n2)cc1`, inactive: 3.04%.

As to `CCC1CN(CCNC(=O)c2cscn2)Cc2cc(OC)ccc2O1` (stereo not drawn), the activation was inactive: -0.879%. In the case of `CC[N+](C)(CC)CCOC(=O)C(O)(c1ccccc1)C1CCCCC1` (stereo not drawn), the activation was inactive: -7.12%. Turning to `C(=Nc1cnc2ccccc2c1)c1ccc2ccccc2n1`, the activation was inactive: -19.1%. As for `CC1(C)CC(C(=O)N2CCOc3ccc(CN4CCN(Cc5ccccn5)CC4)cc3C2)CCO1` (stereo not drawn), the activation is inactive: -5.25%. Consider `CC(C)(CNC(=O)c1cnn(-c2nccc(-c3ccccc3F)n2)c1C1CC1)N1CCOCC1`, for which the activation was inactive: -17.8%. For `O=C(C[n+]1ccc2ccccc2c1)c1ccc(F)cc1` the value was inactive: -12.8%. In the case of `COc1ccc2c(c1)CCC1C2CC[C@@]2(C)C1CC[C@@H]2NCCCCCCN1C(=O)CCC1=O` (stereo partly drawn) it was inactive: -25.4%; in that of `Nc1ccc(/C=C/c2ccc3ncccc3c2)cc1`, inactive: -14.6%; in that of `CC(=O)[C@]1(O)CCC2C3CC(C)C4=CC(=O)C=CC4(C)[C@@]3(F)C(O)C[C@]21C` (stereo partly drawn), inactive: 16.4%. In the case of `CS(=O)(=O)N1CCC2(CC1)CN(c1ccc(-c3ccccc3)cc1)C2` it was inactive: -13%; in that of `COC(=O)C1CCCCN1Cc1ccc2c(c1)CN(C(=O)c1ccc(C)s1)CCO2` (stereo not drawn), inactive: 2.57%; in that of `O=C(c1ccco1)N1CCC2(CCN(Cc3ccncc3)CC2)CC1`, inactive: -5.46%. For the compound `OCCN1CCN(CC/C=C2/c3ccccc3Sc3ccc(C(F)(F)F)cc32)CC1`, the activation was inactive: -14.9% and inactive: -34%. For `CCNc1ncc2ncc(=O)n(Cc3cccc(OC)c3)c2n1`, the activation is inactive: 3.85%. `COc1c(-c2coc3cc4c(cc3c2=O)CC(O)C(C)(C)O4)ccc2c1C=CC(C)(C)O2` (stereo not drawn): the activation is inactive: -14%. In the case of `C[C@@H](O)[C@H]1C(=O)N2C(C(=O)O)=C([C@H]3CCCO3)S[C@H]12` it was inactive: 0.331%.

Regarding `COc1cccc(Nc2ncc3ncc(=O)n(C4CC4)c3n2)c1`, the activation is inactive: -1.21%. As for `NC(N)=NS(=O)(=O)c1ccc(N)cc1`, the activation is inactive: -7.73% and inactive: -12%. In the case of `COc1ccccc1-c1cncnc1NCc1cccc(C)c1`, the activation is inactive: -14%.

In the case of `O=C(c1cccc(F)c1)N1CCC2(CCN(Cc3nccs3)CC2)CC1`, the activation is inactive: -18.3%. With `Cc1cn[nH]c1`, the activation is inactive: 9.24% and inactive: -20.9%. With `COc1ccc(CN2CCCC(Cn3cc(C(=O)N4CCCC4)nn3)C2)c(O)c1` (stereo not drawn), the activation is inactive: -14.3%. `Cc1cnc(SCC2CCCO2)nc1C1CCCN(Cc2nc(-c3ccccc3)cs2)C1` (stereo not drawn): the activation was inactive: 2.73%.

In the case of `O=C(c1cnccn1)N1CCC[C@@]2(CCN(c3ccccc3)C2)C1`, the activation was inactive: 1.28%.

Take `O=C(c1cccc(F)c1)N1CCC2(CC1)CN(c1ccccn1)C2`: the activation is inactive: 2.61%.

Take `O=C[C@H](O)[C@@H](O)[C@H](O)[C@H](O)CO`: the activation was inactive: -8.88%. In the case of `CC1(C)OC2CC3C4CCC5=CC(=O)C=C[C@@]5(C)[C@]4(F)C(O)C[C@@]3(C)[C@]2(C(=O)CO)O1` (stereo partly drawn) it was inactive: 5.25%. With `COc1ccc(-n2c(=O)c(-c3cc(F)cc(F)c3)nc3cnc(N4CCOCC4)nc32)cc1`, the activation is inactive: 13.1%.

Consider `OC(Cn1cncn1)(Cn1cncn1)c1ccc(F)cc1F`, for which the activation is inactive: -29.1%.

Take `NC(=O)[C@@H]1CCCN1C(=O)c1cc(NC(=O)c2ccccc2)cc2ncn(C3CCCC3)c12`: the activation was inactive: 1.72%.

As for `FC(F)(F)c1ccccc1-c1nccc(N2CCNCC2)n1`, the activation is inactive: -3%. In the case of `CCCN1CCN(C(=O)c2cnn(-c3ncc4c(n3)-c3ccccc3CCC4)c2COC)CC1`, the activation was inactive: -6.81%.

On to `CN1C(CC(=O)c2ccccc2)CCCC1CC(O)c1ccccc1` (stereo not drawn), for which the activation was inactive: 15.3%. For `Cc1cccc(CNc2ncncc2-c2ccccc2CN(C)C)c1` the value was inactive: -6.15%. Regarding `O=c1c(-c2ccccc2)nc2cncnc2n1Cc1ccccc1Cl`, the activation is inactive: -21%.

As for `COc1ccc(OC)c(/C=C/c2ccnc3ccccc23)c1`, the activation is inactive: -12.1%. In the case of `CC[N+](C)(C)c1cccc(O)c1` it was inactive: 6.99% and inactive: -10.7% and inactive: -45.6%. In the case of `COc1cc(OC)c2nc(-c3cc4c(c(OC)c3)OCCN(C(=O)C(C)c3n[nH]c(=O)c5ccccc35)C4)cc(C)c2c1` (stereo not drawn), the activation was inactive: -3.45%. For the compound `COc1ccccc1CCn1c(=O)c(-c2cccc(Cl)c2)nc2cncnc21`, the activation is inactive: -18.5%. In the case of `CC(=O)N1CCC2(CCCN(c3ccncc3)C2)CC1` it was inactive: 3.77%; in that of `CN(C)Cc1ccccc1-c1cncnc1NCc1cccnc1`, inactive: -0.38%; in that of `N[C@@H](C(=O)O)[C@@H](CC(=O)O)c1ccc(Cl)cc1`, inactive: 6.37%. As for `COc1ccc2c(c1)O[C@@H]1c3ccc(OC)cc3OCC21` (stereo partly drawn), the activation is inactive: 1.61%. Turning to `CC(=O)[C@@]1(O)CC[C@H]2[C@@H]3C=C(Cl)C4=CC(=O)[C@@H]5C[C@@H]5[C@]4(C)[C@H]3CC[C@@]21C`, the activation is inactive: -9.31%.

With `CO[C@@H]1[C@@H](O[C@@H]2O[C@H](C)[C@@H](O[C@H]3C[C@@](C)(O)[C@@H](OC(=O)CC(C)C)[C@H](C)O3)[C@H](N(C)C)[C@H]2O)[C@@H](CC=O)C[C@@H](C)[C@@H](O)/C=C/C=C/C[C@@H](C)OC(=O)C[C@H]1O`, the activation was inactive: 8.54% and inactive: 1.24%. Turning to `C[C@@H](NCCCc1cccc(C(F)(F)F)c1)c1cccc2ccccc12`, the activation was inactive: -0.068%.

Take `CC(C)c1c(C(=O)NCc2cccnc2)cnn1-c1nccc(-c2ccccc2F)n1`: the activation was inactive: 2.49%. For `CN(Cc1ccco1)c1ccnc(-c2ccccc2C(F)(F)F)n1` the value was inactive: -0.112%; for `COc1cc(=O)n2c(c1C(=O)NCc1ccco1)CCN(Cc1cccc(Cl)c1)CC2`, inactive: -4.44%.
